Molecules are shown by their SMILES. Out of some 45,000 compounds screened, about 65 (0.1%) were called active. The call rests on the fitted dose curve; in most records, active means well fitted activation curve with a large enough effect; inconclusive means small, poorly fitted or top-dose-only effect; inactive means no such curve, though single readings can be large or run the other way. Some of the results follow.

Chain of UniProt P54803 (P54803 whole entry, looked up): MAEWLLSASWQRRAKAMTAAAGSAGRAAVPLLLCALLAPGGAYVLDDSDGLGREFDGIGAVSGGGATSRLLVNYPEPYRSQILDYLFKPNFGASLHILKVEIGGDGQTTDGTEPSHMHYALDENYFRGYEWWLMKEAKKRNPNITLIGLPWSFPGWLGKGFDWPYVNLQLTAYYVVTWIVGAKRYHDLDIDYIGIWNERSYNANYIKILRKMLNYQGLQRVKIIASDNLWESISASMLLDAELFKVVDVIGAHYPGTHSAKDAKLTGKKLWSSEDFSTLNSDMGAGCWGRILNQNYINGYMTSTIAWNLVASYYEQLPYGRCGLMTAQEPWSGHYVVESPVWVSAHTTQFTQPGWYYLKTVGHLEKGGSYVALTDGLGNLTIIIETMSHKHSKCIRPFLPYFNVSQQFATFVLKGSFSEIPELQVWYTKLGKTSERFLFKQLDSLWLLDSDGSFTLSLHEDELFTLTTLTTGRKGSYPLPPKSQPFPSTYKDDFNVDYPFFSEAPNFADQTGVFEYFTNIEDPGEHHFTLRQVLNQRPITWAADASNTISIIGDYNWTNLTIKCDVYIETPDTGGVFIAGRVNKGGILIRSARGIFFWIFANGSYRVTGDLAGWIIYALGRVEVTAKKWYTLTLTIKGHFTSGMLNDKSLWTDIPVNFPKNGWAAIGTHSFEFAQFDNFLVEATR

This experiment has as its target Galactocerebrosidase (Homo sapiens) (UniProt P54803). Put plainly: A Novel Cell-Based Assay to Identify Small Molecules for B -Galactocerebrosidase. Further: 0% is about no effect; nearly all actives have a fitted effect of over 65% in size. Conditions: 145M-Twi-hGALC-G270D cells, HMU-beta-Gal fluorescence, 48 h; series mostly up to 57.5 µM; activation: at the top concentration. In a few lines:
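qHTS, 1536-well; 145M-Twi-hGALC-G270D cells (WT line also made) in DMEM/F12 + 10% FBS; compound incubation on live cells; HMU-β-gal 0.1 mM final, pH 5.2, NaTC; carbonate stop; fluorescence increase = enhanced residual activity.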
On to `O=C(NCc1ccccc1Cl)c1ccc2c(c1)N(Cc1ccccc1)C(=O)c1ccccc1S2`, for which the “activation” value is inactive: -2.68%.

`CCOC(=O)c1sc2ncn(CC(=O)Nc3cccc(C)c3)c(=O)c2c1C`: the “activation” value is inactive: 2.62%.

On to `Cc1ccccc1Cn1c(=O)n(Cc2ccco2)c(=O)c2oc3ccccc3c21`, for which the “activation” value was inactive: -19.8%.

In the case of `O=C(c1ccc2c(c1)CCN2S(=O)(=O)c1ccc(Cl)cc1)N1CCN(c2ccccc2F)CC1`, the “activation” value was inactive: -34%.

For `COc1ccc(Nc2ncc(C(=O)N3CCN(c4ccc(OC)cc4)CC3)c3ccccc23)cc1`, the “activation” value is inactive: -11.3%.

`CC(C)N(Cc1ccccc1)C(=O)c1cc2ccc3cccnc3c2[nH]1`: the “activation” value was inactive: -1.72%.

With `CCOc1ccccc1N1CC(c2nc3ccccc3n2CCCOc2ccccc2)CC1=O` (stereo unspecified), the “activation” value was inactive: -6.41%.

Consider `CCOc1ccccc1C(N)=O`, for which the “activation” value is inactive: -12.8%.

In the case of `CCOC(=O)C1CCN(C(=O)c2nn(-c3ccc(C)cc3)c(=O)c3c2c2ccccc2n3C)CC1`, the “activation” value is inactive: -11.2%.

In the case of `CCC(CC)C(=O)Nc1ccc(OCc2cc(=O)n3ccc(C)cc3n2)cc1`, the “activation” value was inactive: -23.1%.

Take `CN(C)c1ccc(CN2CCc3nc(N4CCN(c5ccccn5)CC4)ncc3C2)cc1`: the “activation” value is inactive: -14.4%.

In the case of `Cc1c(F)cccc1NS(=O)(=O)c1cccs1`, the “activation” value is inactive: -19.2%.

As to `Cc1nc2c(c(SCC(=O)Nc3ccccc3C(F)(F)F)n1)CCC2`, the “activation” value is inactive: -10.9%.

As for `Cc1cc(OC(C)C(=O)N2CCN(CCc3ccccn3)CC2)ccc1Cl` (stereo unspecified), the “activation” value is inactive: -15.1%.

As for `Cc1ccc(-n2ncc3c(NCCO)ncnc32)cc1Cl`, the “activation” value is inactive: -8.65%.

On to `COc1ccc(CNC(=O)Cc2ccc(NC(=O)N3CCSc4ncccc43)cc2)cc1OC`, for which the “activation” value was inactive: -25.6%.

As to `Cc1cc(NC(=O)c2cc(-c3ccc(Cl)cc3)on2)n(-c2ccccc2)n1`, the “activation” value was inactive: -1.18%.

As to `CCOc1cccc(C2c3[nH]c4ccccc4c3CCN2C(=O)CSc2ccccc2)c1` (stereo unspecified), the “activation” value is inactive: -13.1%.

`Cc1cccc(C(=O)N2CCc3cc(CNC(=O)COc4ccc(Cl)cc4)ccc32)c1`: the “activation” value is inactive: -12.5%.

Take `COc1c(C)cc(Br)cc1C(=O)Nc1ccc(-c2nc3ncccc3o2)cc1`: the “activation” value is inactive: -13.8%.

As for `COc1cc(NC(=O)c2ccc3oc(=O)c(S(=O)(=O)c4ccccc4)cc3c2)cc(OC)c1`, the “activation” value is inactive: -14.5%.

Take `CCOc1ccc(NC(=O)Cn2c(=O)n(-c3cccc(Cl)c3)c(=O)c3c2c2cc(C)ccc2n3C)cc1`: the “activation” value was inactive: -9.81%.

Turning to `Cc1nc(SCC(=O)Nc2ccccc2C)cc(-c2ccccc2)n1`, the “activation” value is inactive: -14.5%.

For `Cc1ccccc1NC(=O)CSc1cn(CC(=O)N2CCCCCC2)c2ccccc12`, the “activation” value was inactive: -10.1%.

As for `CCOc1ccccc1NC(=O)c1ccc2c(c1)CCN2S(=O)(=O)c1ccc(C)cc1`, the “activation” value was inactive: -16.6%.

With `COc1cc2c(=O)c(C(=O)c3ccc(C)c(C)c3)cn(Cc3ccc(F)cc3)c2cc1OC`, the “activation” value is inactive: -13.5%.

For the molecule `CCOC(=O)c1c(C)[nH]c(C)c1S(=O)(=O)NCC(=O)Nc1ccc(C)c(N(C)C)c1`, the “activation” value is inactive: -16.2%.

Turning to `CCOc1cc(CNC(=O)Cn2c(=O)c3cccn3c3ccc(F)cc32)cc(OCC)c1OCC`, the “activation” value was inactive: 6.62%.

For `CCSc1nnc2c(n1)OC(c1cc(OC)c(OC)c(OC)c1)Nc1ccccc1-2` (stereo unspecified), the “activation” value is inactive: 7.22%.

As for `Cc1ccccc1Nc1c(-c2ccc(Cl)cc2)nc2c(C)cccn12`, the “activation” value is inactive: -8.81%.

`CC(C)c1ccc(NC(=O)C2CCN(S(=O)(=O)c3cccc4nonc34)CC2)cc1`: the “activation” value was inactive: 2.32%.

In the case of `Cc1ccc(N2C(=O)CSC23C(=O)N(Cc2ccccc2F)c2ccccc23)cc1F` (stereo unspecified), the “activation” value is inactive: -40.7%.

Consider `CCOC(=O)c1c(NC(=O)c2nc(SCC)ncc2Cl)sc2c1CCCC2`, for which the “activation” value is inactive: -20.3%.

`COc1ccc(NC(=O)Cn2c(=O)n(CCc3ccccc3)c(=O)c3c4c(sc32)CCCC4)cc1`: the “activation” value was inactive: 1.29%.

Take `COc1cc(NS(=O)(=O)c2ccc(NC(=O)c3cccc(F)c3)cc2)nc(OC)n1`: the “activation” value was inactive: 9.09%.

As to `COc1cc(NC(=O)CC2C(=O)OCCN2Cc2ccccc2)cc(OC)c1` (stereo unspecified), the “activation” value is inactive: -10.3%.

Regarding `CCC1CN(S(=O)(=O)c2cc(-c3cc(C)no3)ccc2C)c2cc(Cl)ccc2O1` (stereo unspecified), the “activation” value is inactive: -15.9%.

Regarding `Cc1ccccc1NC(=O)c1ccc2[nH]c(C)c(C)c2c1`, the “activation” value was inactive: -28.4%.

Regarding `CCC(CC)c1nn2c(=O)cc(COc3ccc(NC(=O)c4ccccc4C)cc3)nc2s1`, the “activation” value was inactive: 4.63%.

Turning to `Cc1c(Cl)cccc1NC(=O)Cn1c(=O)n(Cc2ccco2)c(=O)c2sc3ccccc3c21`, the “activation” value is inactive: -6.65%.

Regarding `Cc1c(C(=O)NCc2ccc(Cl)cc2)sc2nc3n(c(=O)c12)CCCCC3`, the “activation” value was inactive: -7.25%.

As for `COc1ccc(S(=O)Cc2ccc(C(=O)N3CCN(c4cccc(C)c4C)CC3)o2)cc1` (stereo unspecified), the “activation” value is inactive: 3.63%.

For the molecule `O=C(CCCCn1c(=O)c2ccccc2n(CC(=O)Nc2cccc(C(F)(F)F)c2)c1=O)NCc1ccc2c(c1)OCO2`, the “activation” value was inactive: -1.08%.

With `O=C(Nc1ccc(C(=O)OCc2cc(=O)n3c4c(sc3n2)CCCC4)cc1)c1ccc(F)cc1`, the “activation” value was inactive: -8.47%.

With `CCc1nn2c(-c3ccccc3OC)ccnc2c1-c1ccccc1`, the “activation” value is inactive: -10.7%.

Take `COc1cccc(Cn2c(=O)cc(C)c3c(C)nn(C)c32)c1`: the “activation” value was inactive: -7.86%.

In the case of `CCc1cccc(C)c1NC(=O)CCS(=O)(=O)c1cc(Br)cc2c1N(C(=O)C1CC1)CC2`, the “activation” value was inactive: -13.9%.

With `COc1ccc(C(=O)NCC(c2cccnc2)N2CCN(c3ccccc3)CC2)cc1` (stereo unspecified), the “activation” value is inactive: -7.94%.

On to `CCCc1nn2c(=O)cc(COC(=O)c3cccc(NC(=O)c4cccs4)c3)nc2s1`, for which the “activation” value was inactive: -5.81%.

Take `CCOC(=O)c1ccccc1NC(=O)CN1CCCN(Cc2cc(C)ccc2C)S1(=O)=O`: the “activation” value was inactive: -17.2%.

As for `COc1cc(NC(=O)CN2C(=O)c3ccccc3Sc3ccc(C(=O)N4CCCC4)cc32)cc(OC)c1`, the “activation” value was inactive: -30.4%.

For the molecule `COc1ccc(OC)c(CCNC(=O)c2ccc3c(c2)c(C)c(C)n3Cc2ccccc2)c1`, the “activation” value is inactive: -9.02%.

For the molecule `Cc1ccccc1NC(=O)c1ccc(F)c(S(=O)(=O)N2CCN(c3ccccc3F)CC2)c1`, the “activation” value is inactive: -5.09%.

Turning to `COc1ccc(-c2nc(CSc3nncn4c3cc3oc(C)cc34)c(C)o2)cc1`, the “activation” value is inactive: -8.03%.

As for `O=C(NCCc1ccccc1)C(=O)NCC(c1ccco1)S(=O)(=O)c1cccs1` (stereo unspecified), the “activation” value was inactive: -18.3%.

In the case of `Cc1ccc(Cl)cc1NC(=O)COC(=O)CC(C)(C)CC1=NS(=O)(=O)c2ccccc2N1`, the “activation” value is inactive: -5.21%.

Take `Cc1ccc(-n2nnc(-c3nc(-c4cccs4)no3)c2N)cc1C`: the “activation” value was inactive: -24.2%.

Take `Cc1oc2ncnc(N3CCCCC3)c2c1C(=O)NCC1CCN(Cc2cccc(F)c2)CC1`: the “activation” value was inactive: -18.6%.

For the molecule `CCN1CCN(CCCNC(=O)CS(=O)(=O)Cc2nc(-c3cccc(OC)c3)oc2C)CC1`, the “activation” value is inactive: -16.7%.

Turning to `CCOC(=O)c1[nH]c2ccccc2c1NC(=O)c1ccccc1F`, the “activation” value was inactive: -11.6%.

`COc1ccc(-n2c(SCC(=O)NCc3ccccc3)nc3c([nH]c4ccccc43)c2=O)cc1`: the “activation” value was inactive: -9.08%.

The values are drawn from PubChem BioAssay AID1159614 (National Center for Advancing Translational Sciences (NCATS), 2016).
